The campaign covered roughly 340,000 compounds. About 20 (0.006%) were called active. Inconclusive results, whose numbers are uncertain, are shown with a selection of clear calls. Calls follow the shape of the dose curve; as a rule, active = well fitted inhibition curve with a large enough effect; inconclusive = small, poorly fitted or top-dose-only effect; inactive = no such curve, though single readings can be large or run the other way. Potencies beside an inconclusive call are fits to weak or partial responses and may not hold up.
These compounds were tested against Sphingomyelin phosphodiesterase (Homo sapiens) (UniProt P17405) (assay: Inhibitors of Secretory Acid Sphingomyelinase (S-ASM): qHTS). Details: placental ASM, HMU-PC fluorogenic substrate (series up to 57.5 µM), 60 min.
Procedure, shortened: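 HMU-PC0 cleavage (9 uM final) by human placental ASM, 60 min at 37 °C following 10 min compound exposure at RT; stopped at pH 10, fluorescence Ex 386/Em 447 nm.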
Potency is read from the fitted curve at half-maximal effect; tags tell the direction and shape of the fitted curve.

UniProt P17405, sequence (P17405 whole entry, looked up): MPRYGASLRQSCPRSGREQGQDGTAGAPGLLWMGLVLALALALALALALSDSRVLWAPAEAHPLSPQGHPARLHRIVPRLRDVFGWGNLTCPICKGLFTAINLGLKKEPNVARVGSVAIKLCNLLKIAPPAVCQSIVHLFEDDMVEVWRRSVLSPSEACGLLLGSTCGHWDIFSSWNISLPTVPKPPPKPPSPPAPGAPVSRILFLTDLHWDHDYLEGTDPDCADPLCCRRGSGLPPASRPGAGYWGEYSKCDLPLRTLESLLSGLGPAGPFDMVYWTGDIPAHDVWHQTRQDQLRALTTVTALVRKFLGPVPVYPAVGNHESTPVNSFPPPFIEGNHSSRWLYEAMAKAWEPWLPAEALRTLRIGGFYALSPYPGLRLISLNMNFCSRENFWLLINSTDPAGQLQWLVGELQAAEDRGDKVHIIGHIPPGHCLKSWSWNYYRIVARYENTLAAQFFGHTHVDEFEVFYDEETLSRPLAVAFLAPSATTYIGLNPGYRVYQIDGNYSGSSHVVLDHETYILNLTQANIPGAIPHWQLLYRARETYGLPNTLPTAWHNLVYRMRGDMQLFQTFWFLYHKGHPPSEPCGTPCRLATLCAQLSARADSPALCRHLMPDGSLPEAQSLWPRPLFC

Structure (SMILES) | Potency
Cc1ccc(C)c(S(=O)(=O)Nc2cc(SCC(=O)O)c(O)c3ccccc23)c1 | inconclusive: 89.1 µM [inhibitor, single point]
COc1ccc(-c2[nH]c(-c3ccc(SC)cc3)nc2SCC(=O)Nc2nccs2)cc1 | inconclusive: 501 µM [inhibitor, partial curve, poor fit]
O=C(Nc1ccccc1Cl)Nc1cccc2cccnc12 | inconclusive: 251 µM [inhibitor, partial curve, poor fit]
CC1CN(CCCCSc2ccc(Cl)cc2)CC(C)O1 (configuration not stated) | inactive
CC1(C)Oc2ccc3ccc(=O)oc3c2/C(=C/Nc2ccc(O)cc2)C1=O | inconclusive: 282 µM [inhibitor, partial curve, poor fit]
CC(C)(C)CC(=O)Nc1nnc(C(F)(F)F)s1 | inactive
COc1ccc(OC)c(NC(=O)COC(=O)Cc2ccc(Br)cc2)c1 | inconclusive: 1000 µM [inhibitor, partial curve, poor fit]
Cc1ccccc1NS(=O)(=O)c1cc(C(=O)Nc2cccc([N+](=O)[O-])c2)ccc1C | inconclusive: 79.4 µM [inhibitor, partial curve, poor fit]
Cc1ccc(NC(=O)N2CCC(c3nc4c(nnn4Cc4c(F)cccc4Cl)c(=O)[nH]3)CC2)cc1 | inconclusive: 50.1 µM [inhibitor, partial curve, poor fit]
CCN1C(=O)/C(=C/c2cc(C)n(C)c2C)SC1=Nc1ccc(OC)cc1 | inconclusive: 100 µM [inhibitor, partial curve, poor fit]
Cc1cc(Nc2cccc(F)c2)nc(NCc2ccccc2)n1 | inconclusive: 100 µM [inhibitor, partial curve, poor fit]
CCc1ccc(Sc2cc(C(=O)NCCN3CCOCC3)c3ccccc3n2)cc1 | inactive
CCOC(=O)c1ccc(S(=O)(=O)NNc2ccc(C(F)(F)F)cn2)cc1 | inconclusive: 1580 µM [inhibitor, partial curve, poor fit]
Cn1nnnc1SCC1=C(C(=O)O)N2C(=O)[C@@H](NC(=O)[C@H](O)c3ccccc3)[C@H]2SC1 | inconclusive: 70.8 µM [inhibitor, partial curve, poor fit]
O=c1cc(CN2CCN(c3ccccc3)CC2)c2c(ccc3ccccc32)o1 | inconclusive: 112 µM [inhibitor, partial curve, poor fit]
O=c1cc(-c2ccccc2Cl)oc2c(NS(=O)(=O)c3ccccc3OC(F)(F)F)ccc(O)c12 | inconclusive: 112 µM [inhibitor, partial curve, poor fit]
O=C(c1ccc2nc(N3CCOCC3)sc2c1)N1CCN(c2ccc(Cl)cc2)CC1 | inconclusive: 112 µM [inhibitor, partial curve, poor fit]
COc1ccc(-c2cc([C@H]3[C@H]4C=CC[C@@H](C)[C@@H]4C(=O)N3Cc3ccccc3)ccc2F)cc1OC | inactive
CCCCSCCCNC(=O)c1cn(CC)c2ccc(S(=O)(=O)N3CCOCC3)cc2c1=O | inconclusive: 178 µM [inhibitor, partial curve, poor fit]

Structure (SMILES) | Potency
Cc1[nH]n(-c2ccc(Cl)cc2)c(=O)c1C=Nc1ccc(S(=O)(=O)N2CCOCC2)cc1 | inconclusive: 126 µM [inhibitor, partial curve, poor fit]
CC1CCCN(c2ccc(C(=O)NCc3ccc4c(c3)OCO4)cc2[N+](=O)[O-])C1 (configuration not stated) | inconclusive: 1120 µM [inhibitor, partial curve, poor fit]
CCn1c2ccccc2c2cc(NC(=O)C(C)OC(=O)c3ccc(NC(=O)CC#N)cc3)ccc21 (configuration not stated) | inactive
CC1CCN(CCCNC(=O)c2ccc3c(=O)n(Cc4ccc(Cl)cc4)c(=S)[nH]c3c2)CC1 | inconclusive: 89.1 µM [inhibitor, partial curve, poor fit]
O=C1CC(c2ccccc2)CC(=O)C1CS(=O)(=O)c1ccccc1 (configuration not stated) | inconclusive: 2.24 µM [inhibitor, full curve, poor fit]
CC(C)(C)OC(=O)N[C@H](Cc1ccccc1)C(=O)N1CCC[C@@H]1C(=O)O | inactive
C=C1CC(Cn2cc(Br)c(=O)[nH]c2=O)(c2ccc(-c3ccccc3)cc2)OC1=O (configuration not stated) | inconclusive: 112 µM [inhibitor, partial curve, poor fit]
Nc1scc2c(C(=O)N/N=C/c3ccc(Cl)cc3)nn(-c3ccccc3)c(=O)c12 | inconclusive: 251 µM [inhibitor, partial curve, poor fit]
CCc1ccc(NC(=O)Nc2ccsc2C(=O)OC)cc1 | inactive
O=[N+]([O-])c1cccc2ccc(/C=C/c3ccc(C(F)(F)F)cc3)nc12 | inconclusive: 112 µM [inhibitor, partial curve, poor fit]
FC(F)(F)c1nnc(-c2ccccc2)nc1Oc1ccc(Cl)cc1Cl | inconclusive: 282 µM [inhibitor, partial curve, poor fit]
CCCN1C(=O)/C(=C2\SC(N3CCCCC3)=NC2=O)c2ccccc21 | inconclusive: 89.1 µM [inhibitor, single point]
Cn1cccc1/C=C1\SC(=S)N(NC(=O)c2cccc(Cl)c2)C1=O | inconclusive: 56.2 µM [inhibitor, single point]
CCOCCCn1c(SCc2nc3ccccc3s2)nc2ccccc2c1=O | inconclusive: 355 µM [inhibitor, partial curve, poor fit]
Cc1ccc(C(=O)NNC(=O)c2cccc(S(=O)(=O)N3CCN(c4ccccc4)CC3)c2)cc1 | inconclusive: 79.4 µM [inhibitor, single point]
CC(=O)Nc1ccc(S(=O)(=O)Nc2nc3ccccc3nc2Nc2ccc(O)cc2)cc1 | inconclusive: 141 µM [inhibitor, partial curve, poor fit]
CCN1CCS/C1=C\C=C\C1=[N+](CC)CCS1 | inconclusive: 70.8 µM [inhibitor, partial curve, poor fit]
Cc1ccc(S(=O)(=O)NN2C(=O)/C(=C/c3ccccn3)SC2=S)cc1 | inconclusive: 501 µM [inhibitor, partial curve, poor fit]
